Reference: publication PMC12820563, “FoxP3 forms a head-to-head dimer in vivo and stabilizes its multimerization on adjacent microsatellites”
The list shows a part of the results.

target: T1, MBP-FoxP1dN (Mus musculus, UniProt P58462 326-579); assay: PD-seq (MBP pull-down with sequencing); 20 mM Tris-HCl pH 7.5, 100 mM NaCl, 1.5 mM MgCl2, 0.4 uM protein, 0.1 uM dsDNA library, 30 min, room temperature, amylose pull-down; high values mean tight binding; details: protein: recombinant; tags: His6-MBP; chain copies: 2; dsDNA, one strand shown
T1 sequence: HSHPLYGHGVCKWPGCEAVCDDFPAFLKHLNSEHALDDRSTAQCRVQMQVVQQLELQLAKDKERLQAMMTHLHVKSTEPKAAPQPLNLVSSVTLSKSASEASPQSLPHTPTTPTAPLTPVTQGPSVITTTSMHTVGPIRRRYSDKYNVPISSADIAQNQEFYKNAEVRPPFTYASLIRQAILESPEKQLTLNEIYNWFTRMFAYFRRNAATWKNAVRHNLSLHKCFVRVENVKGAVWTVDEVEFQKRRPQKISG
Outline: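 Binding is given as reads-per-million enrichment, pull-down over input, with replicates pooled. The bait was an N-terminus-lacking mouse FoxP3 or FoxP1 fragment with a His6-MBP tag, expressed in E. coli and used at 0.4 µM with 0.1 µM Klenow-filled degenerate double-stranded DNA library for 30 min at room temperature in Tris pH 7.5 buffer with NaCl and MgCl2. Amylose resin pull-down with three washes was followed by proteinase K release, PCR barcoding and Illumina sequencing.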

Sequence	binding signal
GATGATTGTTCTCCCAGCTGATGAATTATTGCATTCGAGTAAACAAATTTTCCTAATCTTTCTGTTCAAGCGCCATCTAC	1.66 RPM ratio (pull-down/input)
GATGATTGTTCTCCCAGCTGATGAATTTGATACCTCGAGTAAACAAATTTTCCTAATCTTTCTGTTCAAGCGCCATCTAC	0.899 RPM ratio (pull-down/input)
GATGATTGTTCTCCCAGCTGATGAATTTATTTGCTCGAGTAAACAAATTTTCCTAATCTTTCTGTTCAAGCGCCATCTAC	1.69 RPM ratio (pull-down/input)
GATGATTGTTCTCCCAGCTGATGAATTAGGTTAGTCGAGTAAACAAATTTTCCTAATCTTTCTGTTCAAGCGCCATCTAC	0.893 RPM ratio (pull-down/input)
GATGATTGTTCTCCCAGCTGATGAATTCCCTGCTTCGAGTAAACAAATTTTCCTAATCTTTCTGTTCAAGCGCCATCTAC	0.847 RPM ratio (pull-down/input)
GATGATTGTTCTCCCAGCTGATGAATTGAGGACATCGAGTAAACAAATTTTCCTAATCTTTCTGTTCAAGCGCCATCTAC	0.975 RPM ratio (pull-down/input)
GATGATTGTTCTCCCAGCTGATGAATTTCGACCGTCGAGTAAACAAATTTTCCTAATCTTTCTGTTCAAGCGCCATCTAC	0.765 RPM ratio (pull-down/input)
GATGATTGTTCTCCCAGCTGATGAATTACCCGGGTCGAGTAAACAAATTTTCCTAATCTTTCTGTTCAAGCGCCATCTAC	0.856 RPM ratio (pull-down/input)
GATGATTGTTCTCCCAGCTGATGAATTTGTGACCTCGAGTAAACAAATTTTCCTAATCTTTCTGTTCAAGCGCCATCTAC	1.16 RPM ratio (pull-down/input)
GATGATTGTTCTCCCAGCTGATGAATTAAGAAATTCGAGTAAACAAATTTTCCTAATCTTTCTGTTCAAGCGCCATCTAC	0.875 RPM ratio (pull-down/input)
GATGATTGTTCTCCCAGCTGATGAATTGTAAGTGTCGAGTAAACAAATTTTCCTAATCTTTCTGTTCAAGCGCCATCTAC	1.09 RPM ratio (pull-down/input)
GATGATTGTTCTCCCAGCTGATGAATTACAGGAGTCGAGTAAACAAATTTTCCTAATCTTTCTGTTCAAGCGCCATCTAC	0.912 RPM ratio (pull-down/input)
GATGATTGTTCTCCCAGCTGATGAATTGTAGACATCGAGTAAACAAATTTTCCTAATCTTTCTGTTCAAGCGCCATCTAC	1.21 RPM ratio (pull-down/input)
GATGATTGTTCTCCCAGCTGATGAATTGTGAGGCTCGAGTAAACAAATTTTCCTAATCTTTCTGTTCAAGCGCCATCTAC	0.942 RPM ratio (pull-down/input)
GATGATTGTTCTCCCAGCTGATGAATTCCCGGGTTCGAGTAAACAAATTTTCCTAATCTTTCTGTTCAAGCGCCATCTAC	0.773 RPM ratio (pull-down/input)
GATGATTGTTCTCCCAGCTGATGAATTATACTGCTCGAGTAAACAAATTTTCCTAATCTTTCTGTTCAAGCGCCATCTAC	0.951 RPM ratio (pull-down/input)
GATGATTGTTCTCCCAGCTGATGAATTAGTGAAATCGAGTAAACAAATTTTCCTAATCTTTCTGTTCAAGCGCCATCTAC	1.1 RPM ratio (pull-down/input)
GATGATTGTTCTCCCAGCTGATGAATTAACTGCCTCGAGTAAACAAATTTTCCTAATCTTTCTGTTCAAGCGCCATCTAC	0.969 RPM ratio (pull-down/input)
GATGATTGTTCTCCCAGCTGATGAATTAAGACCCTCGAGTAAACAAATTTTCCTAATCTTTCTGTTCAAGCGCCATCTAC	0.84 RPM ratio (pull-down/input)
GATGATTGTTCTCCCAGCTGATGAATTCTTAGCTTCGAGTAAACAAATTTTCCTAATCTTTCTGTTCAAGCGCCATCTAC	0.856 RPM ratio (pull-down/input)
GATGATTGTTCTCCCAGCTGATGAATTGGCCAGTTCGAGTAAACAAATTTTCCTAATCTTTCTGTTCAAGCGCCATCTAC	0.793 RPM ratio (pull-down/input)

Sequence	binding signal
GATGATTGTTCTCCCAGCTGATGAATTCTGAGCCTCGAGTAAACAAATTTTCCTAATCTTTCTGTTCAAGCGCCATCTAC	0.85 RPM ratio (pull-down/input)
GATGATTGTTCTCCCAGCTGATGAATTAGGGGGATCGAGTAAACAAATTTTCCTAATCTTTCTGTTCAAGCGCCATCTAC	0.885 RPM ratio (pull-down/input)
GATGATTGTTCTCCCAGCTGATGAATTGCGGCCCTCGAGTAAACAAATTTTCCTAATCTTTCTGTTCAAGCGCCATCTAC	0.949 RPM ratio (pull-down/input)
GATGATTGTTCTCCCAGCTGATGAATTGTTTTTTTCGAGTAAACAAATTTTCCTAATCTTTCTGTTCAAGCGCCATCTAC	2.25 RPM ratio (pull-down/input)
GATGATTGTTCTCCCAGCTGATGAATTAAGGCTGTCGAGTAAACAAATTTTCCTAATCTTTCTGTTCAAGCGCCATCTAC	0.84 RPM ratio (pull-down/input)
GATGATTGTTCTCCCAGCTGATGAATTGCATGCTTCGAGTAAACAAATTTTCCTAATCTTTCTGTTCAAGCGCCATCTAC	1.18 RPM ratio (pull-down/input)
GATGATTGTTCTCCCAGCTGATGAATTAGTGCAGTCGAGTAAACAAATTTTCCTAATCTTTCTGTTCAAGCGCCATCTAC	0.937 RPM ratio (pull-down/input)
GATGATTGTTCTCCCAGCTGATGAATTTAGACAGTCGAGTAAACAAATTTTCCTAATCTTTCTGTTCAAGCGCCATCTAC	1.02 RPM ratio (pull-down/input)
GATGATTGTTCTCCCAGCTGATGAATTCATTTCATCGAGTAAACAAATTTTCCTAATCTTTCTGTTCAAGCGCCATCTAC	0.9 RPM ratio (pull-down/input)
GATGATTGTTCTCCCAGCTGATGAATTGACACCGTCGAGTAAACAAATTTTCCTAATCTTTCTGTTCAAGCGCCATCTAC	1.14 RPM ratio (pull-down/input)
GATGATTGTTCTCCCAGCTGATGAATTCTGTGGATCGAGTAAACAAATTTTCCTAATCTTTCTGTTCAAGCGCCATCTAC	0.956 RPM ratio (pull-down/input)
GATGATTGTTCTCCCAGCTGATGAATTGTCGCTGTCGAGTAAACAAATTTTCCTAATCTTTCTGTTCAAGCGCCATCTAC	1.02 RPM ratio (pull-down/input)
GATGATTGTTCTCCCAGCTGATGAATTCTCCGCATCGAGTAAACAAATTTTCCTAATCTTTCTGTTCAAGCGCCATCTAC	1.08 RPM ratio (pull-down/input)
GATGATTGTTCTCCCAGCTGATGAATTGGGGTACTCGAGTAAACAAATTTTCCTAATCTTTCTGTTCAAGCGCCATCTAC	0.818 RPM ratio (pull-down/input)
GATGATTGTTCTCCCAGCTGATGAATTTAGGCAGTCGAGTAAACAAATTTTCCTAATCTTTCTGTTCAAGCGCCATCTAC	0.877 RPM ratio (pull-down/input)
GATGATTGTTCTCCCAGCTGATGAATTCCAGCTGTCGAGTAAACAAATTTTCCTAATCTTTCTGTTCAAGCGCCATCTAC	0.787 RPM ratio (pull-down/input)
GATGATTGTTCTCCCAGCTGATGAATTTGCCTGCTCGAGTAAACAAATTTTCCTAATCTTTCTGTTCAAGCGCCATCTAC	0.858 RPM ratio (pull-down/input)
GATGATTGTTCTCCCAGCTGATGAATTCAATAGCTCGAGTAAACAAATTTTCCTAATCTTTCTGTTCAAGCGCCATCTAC	0.896 RPM ratio (pull-down/input)
GATGATTGTTCTCCCAGCTGATGAATTAGTAGGTTCGAGTAAACAAATTTTCCTAATCTTTCTGTTCAAGCGCCATCTAC	0.902 RPM ratio (pull-down/input)
GATGATTGTTCTCCCAGCTGATGAATTTGTTTTGTCGAGTAAACAAATTTTCCTAATCTTTCTGTTCAAGCGCCATCTAC	2.33 RPM ratio (pull-down/input)
GATGATTGTTCTCCCAGCTGATGAATTTTGGTAGTCGAGTAAACAAATTTTCCTAATCTTTCTGTTCAAGCGCCATCTAC	0.905 RPM ratio (pull-down/input)

Sequence	binding signal
GATGATTGTTCTCCCAGCTGATGAATTCATCGTATCGAGTAAACAAATTTTCCTAATCTTTCTGTTCAAGCGCCATCTAC	0.924 RPM ratio (pull-down/input)
GATGATTGTTCTCCCAGCTGATGAATTTGAGCCCTCGAGTAAACAAATTTTCCTAATCTTTCTGTTCAAGCGCCATCTAC	0.779 RPM ratio (pull-down/input)
GATGATTGTTCTCCCAGCTGATGAATTACCCGTTTCGAGTAAACAAATTTTCCTAATCTTTCTGTTCAAGCGCCATCTAC	1.03 RPM ratio (pull-down/input)
GATGATTGTTCTCCCAGCTGATGAATTAGTTGCGTCGAGTAAACAAATTTTCCTAATCTTTCTGTTCAAGCGCCATCTAC	1.28 RPM ratio (pull-down/input)
GATGATTGTTCTCCCAGCTGATGAATTTTTCAACTCGAGTAAACAAATTTTCCTAATCTTTCTGTTCAAGCGCCATCTAC	0.927 RPM ratio (pull-down/input)
GATGATTGTTCTCCCAGCTGATGAATTCCCCCATTCGAGTAAACAAATTTTCCTAATCTTTCTGTTCAAGCGCCATCTAC	0.876 RPM ratio (pull-down/input)
GATGATTGTTCTCCCAGCTGATGAATTGCGACTATCGAGTAAACAAATTTTCCTAATCTTTCTGTTCAAGCGCCATCTAC	1.19 RPM ratio (pull-down/input)
GATGATTGTTCTCCCAGCTGATGAATTTCTGGGGTCGAGTAAACAAATTTTCCTAATCTTTCTGTTCAAGCGCCATCTAC	0.783 RPM ratio (pull-down/input)
GATGATTGTTCTCCCAGCTGATGAATTAGTCCTTTCGAGTAAACAAATTTTCCTAATCTTTCTGTTCAAGCGCCATCTAC	0.908 RPM ratio (pull-down/input)
GATGATTGTTCTCCCAGCTGATGAATTTGCGCGGTCGAGTAAACAAATTTTCCTAATCTTTCTGTTCAAGCGCCATCTAC	0.902 RPM ratio (pull-down/input)
GATGATTGTTCTCCCAGCTGATGAATTATCCTTTTCGAGTAAACAAATTTTCCTAATCTTTCTGTTCAAGCGCCATCTAC	0.902 RPM ratio (pull-down/input)
GATGATTGTTCTCCCAGCTGATGAATTGCAGCTCTCGAGTAAACAAATTTTCCTAATCTTTCTGTTCAAGCGCCATCTAC	1.08 RPM ratio (pull-down/input)
GATGATTGTTCTCCCAGCTGATGAATTCTGGCTGTCGAGTAAACAAATTTTCCTAATCTTTCTGTTCAAGCGCCATCTAC	0.808 RPM ratio (pull-down/input)
GATGATTGTTCTCCCAGCTGATGAATTGCTGGTTTCGAGTAAACAAATTTTCCTAATCTTTCTGTTCAAGCGCCATCTAC	1.04 RPM ratio (pull-down/input)
GATGATTGTTCTCCCAGCTGATGAATTAGGTATCTCGAGTAAACAAATTTTCCTAATCTTTCTGTTCAAGCGCCATCTAC	0.964 RPM ratio (pull-down/input)
GATGATTGTTCTCCCAGCTGATGAATTGAGAGTCTCGAGTAAACAAATTTTCCTAATCTTTCTGTTCAAGCGCCATCTAC	0.741 RPM ratio (pull-down/input)
GATGATTGTTCTCCCAGCTGATGAATTTCAGGAGTCGAGTAAACAAATTTTCCTAATCTTTCTGTTCAAGCGCCATCTAC	0.764 RPM ratio (pull-down/input)
GATGATTGTTCTCCCAGCTGATGAATTAGGGGAATCGAGTAAACAAATTTTCCTAATCTTTCTGTTCAAGCGCCATCTAC	0.899 RPM ratio (pull-down/input)
GATGATTGTTCTCCCAGCTGATGAATTAAGTCAATCGAGTAAACAAATTTTCCTAATCTTTCTGTTCAAGCGCCATCTAC	1.15 RPM ratio (pull-down/input)
GATGATTGTTCTCCCAGCTGATGAATTATTATTTTCGAGTAAACAAATTTTCCTAATCTTTCTGTTCAAGCGCCATCTAC	3.1 RPM ratio (pull-down/input)
GATGATTGTTCTCCCAGCTGATGAATTTCCCAACTCGAGTAAACAAATTTTCCTAATCTTTCTGTTCAAGCGCCATCTAC	0.84 RPM ratio (pull-down/input)
